# Where “and” joins values, the source holds several entries; their conditions need not be identical. Equal values may be shown once. In all, about 360,000 compounds went through this assay and about 2,600 (0.72%) were called active. Inconclusive means that the source gave no clear call. Such entries were picked first, then a sample of the others. The call rests on the fitted dose curve; in most records, active means well fitted inhibition curve with a large enough effect; inconclusive means small, poorly fitted or top-dose-only effect; inactive means no such curve, though single readings can be large or run the other way. Potencies of inconclusive entries are doubtful fits and often do not repeat. A structure can be active in one record and inactive in another.
# Test: Primary qHTS for Inhibitors of ATXN expression; further: nearly all actives have a fitted effect of over 55% in size
# Settings: HEK-293 ATXN2-luciferase reporter, luminescence, 24 h; activity change, negative = inhibition: at 57 µM (top of the series)
# Procedure, shortened: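 ATXN2-luciferase reporter cells (luciferase flanked by upstream and downstream ATXN2 gene portions) were treated 24 h at 37 °C with compounds at up to 57 uM. SteadyGlo luminescence gave expression; GF-AFC fluorescence gave viability.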
# On the % scale 0 is the no-effect control and ±100 the full control effect; potency means the concentration at half of the fitted maximal effect; tags describe the fitted curve by direction and shape.
Structure (SMILES),Potency,"activity change, negative = inhibition"
Cc1cc(-c2ccccc2)n(-c2cc(N/N=C/c3ccccc3O)ncn2)n1,"inconclusive: 14.1 µM [inhibitor, partial curve, poor fit]",–
COC(=O)C1=C(C)N(Cc2ccccc2)C(=NCc2cccc(Cl)c2)N[C@H]1c1ccccc1,"inconclusive: 25.1 µM [inhibitor, single point]",–
CC1=C(CO)C(=O)OC([C@@H](C)C2CC[C@H]3C4C[C@H]5O[C@]56[C@@H](O)C=CC(=O)[C@]6(C)C4CC[C@]23C)C1 (some centres not stated),active: 3.16 µM,–
CCN1CCN(Cc2ccc(NC(=O)c3cc(NC(=O)c4cncc(-c5ccc(C#N)cc5)c4)cc(OC)c3)cc2C(F)(F)F)CC1,"active: 25.1 µM and inconclusive: 3.55 µM [inhibitor, full curve, poor fit]",–
CCSc1nnc(NC(=O)c2ccc3ccccc3n2)s1,"inconclusive: 39.8 µM [inhibitor, single point]",–
CC(C)C[C@H](NC(=O)c1[nH]cnc1C(=O)N[C@H](C)c1ccccc1)C(=O)OC(C)(C)C,"inconclusive: 35.5 µM [inhibitor, single point]",–
COc1cc(Cn2c(=O)oc3ccc(C)cc32)ccc1OCCC(C)C,–,inactive: -7.91%
Cc1cn(C)c(CC(=O)NCc2cccc(Cl)c2)c1C(=O)O,–,inactive: 2.15%
CCC1CSC(Nc2ccc(C(=O)/C=C/c3ccc(Oc4ccccc4)cc3)cc2)=N1 (configuration not stated),"inconclusive: 39.8 µM [inhibitor, single point]",–
O=C(NCCCN1CCOCC1)c1cc(-c2ccc(Cl)c(Cl)c2)on1,"inconclusive: 7.08 µM [inhibitor, partial curve, poor fit]",–
C[C@H](NC(=O)C(C#N)=Cc1cccc(Br)n1)c1ccccc1,active: 21.7 µM,–
Cc1ccnc(SCC(=O)c2ccc(Br)cc2)c1C#N,–,inactive: 41.9%
Oc1ccc(-c2nc(-c3ccc(F)cc3)c(-c3ccncc3)[nH]2)cc1,"inconclusive: 38.5 µM [inhibitor, single point]",–
Cc1ccc(NC(=O)Nc2nnc(-c3ccncc3)s2)cc1,"inconclusive: 29.9 µM [inhibitor, single point]",–
CCCCCCOc1ccc(/C=C/C(=O)Nc2sc3c(c2C(=O)OC)CCC3)cc1OC,"inconclusive: 39.8 µM [inhibitor, single point]",–
CN1c2ccc(Cl)cc2-c2nc(SCC(=O)NCc3ccc(F)cc3)ncc2S1(=O)=O,–,inactive: -4.03%
Cc1cccc(NS(=O)(=O)c2nnc(NC(=O)c3ccc(Cl)cc3)s2)c1,–,inactive: 6.84%
CC(C)C1Nc2c(O)cc(Cl)c([N+](=O)[O-])c2C2C=CCC21 (configuration not stated),"inconclusive: 39.8 µM [inhibitor, single point]",–
CS(=O)(=O)N1CCc2cc(-c3csc(NC(=O)Cc4cccs4)n3)ccc21,active: 17.8 µM,–
Cc1cc(N/N=C/c2ccc(O)cc2O)nc(-c2ccccc2O)n1,"inconclusive: 12.6 µM [inhibitor, partial curve]",–
CCCc1ccc(-c2ccc(F)c(N)c2)nc1,"inconclusive: 22.4 µM [inhibitor, single point]",–

Structure (SMILES),Potency,"activity change, negative = inhibition"
CN(Cc1ccccc1)c1nc2c(c(=O)[nH]c(=O)n2C)n1CCOc1ccccc1,–,inactive: -1.25%
O=C(CCCCCn1c(=S)[nH]c2cc3c(cc2c1=O)OCO3)N1CCN(C2CCCCC2)CC1,"inconclusive: 39.8 µM [inhibitor, single point]",–
Cc1cc(C)c(S(=O)(=O)Nc2ccc3oc(C)c(C(=O)OC(C)C)c3c2)cc1C,"inconclusive: 31.6 µM [inhibitor, partial curve]",–
CCCc1ccc(C2C3=C(CC(C)(C)CC3=O)NC3=C2C(=O)c2ccccc23)cc1 (configuration not stated),"inconclusive: 25.1 µM [inhibitor, single point]",–
CN1CCN(c2nc(-c3ccccn3)nc3ccccc23)CC1,"inconclusive: 39.8 µM [inhibitor, single point]",–
O=C(NCCN1CCC(n2c(=O)[nH]c3ccccc32)CC1)c1ccc(F)c(C(F)(F)F)c1,"inconclusive: 31.6 µM [inhibitor, single point]",–
CCC(CO)Oc1cc(NCc2ccccc2O)c2ncn(C(C)C)c2c1 (configuration not stated),"inconclusive: 10 µM [inhibitor, partial curve]",–
CCC1CCCCN1C(=O)CSc1nc2c([nH]c3ccccc32)c(=O)n1-c1cccc(OC)c1 (configuration not stated),"inconclusive: 31.6 µM [inhibitor, partial curve, poor fit]",–
CCOC(=O)c1ccc(NC(=O)c2csc3c2CCCCC3)cc1,"inconclusive: 39.8 µM [inhibitor, single point]",–
CC1C(=O)N(Cc2cn(Cc3ccco3)nn2)CCS(=O)(=O)N1Cc1ccc(-c2ccc(Cl)cc2)cc1 (configuration not stated),"inconclusive: 39.8 µM [inhibitor, single point]",–
CCOc1ccc(NC(=O)Cn2cc(C(=O)c3ccc(C)c(C)c3)c(=O)c3cc(OC)c(OC)cc32)cc1,–,inactive: -1.08%
CCc1ccc(NC(=O)C(=O)NCC(c2cccnc2)N2CCN(C)CC2)cc1 (configuration not stated),–,inactive: -16.8%
O=c1oc2ccc(C#CC3(O)CCCCC3)cc2cc1-n1cc(-c2ccccn2)nn1,–,inactive: -16.7%
Cc1ccc(C(=O)NCc2nc3ccccc3[nH]2)o1,–,inactive: -2.62%
COc1ccc(NC(=O)CCOc2ccccc2C)cc1S(=O)(=O)N1CCCCC1,"inconclusive: 17.8 µM [inhibitor, partial curve, poor fit]",–
CCNC(=O)c1cc2c(c(-c3cccc(-c4ccccc4F)c3)n1)[C@@H](CCO)N(C(=O)CC1CC1)C2,–,inactive: -36.9%
CCOC(=O)N(O)c1ccc(C=Cc2ccccc2)cc1,"inconclusive: 1.68 µM [inhibitor, full curve, poor fit]",–
Cc1nc2ccc(Nc3nc4cc(S(=O)(=O)N5CCOCC5)ccc4o3)cc2s1,–,inactive: 3.42%
CC(=O)NC(=C(Cl)Cl)S(=O)(=O)c1ccccc1,"inconclusive: 37.7 µM [inhibitor, single point]",–
C=CCC[C@H](Cc1ccc(F)cc1)C(=O)OC[C@H](Cc1c[nH]c2ccccc12)NC(=O)[C@H](CC=C)CC(=O)NCCO,"inconclusive: 39.8 µM [inhibitor, partial curve, poor fit]",–
Cc1ccc(OCc2nnc(SCc3cc(=O)[nH]c4ccccc34)n2-c2ccccc2)cc1,"inconclusive: 33.6 µM [inhibitor, single point]",–

Structure (SMILES),Potency,"activity change, negative = inhibition"
CCCCC[C@H](O)/C=C/C1C(=O)C=C[C@H]1C/C=C\CCCC(=O)OC (some centres not stated),"inconclusive: 25.1 µM [inhibitor, single point]",–
C[C@H](c1ccccc1)N1C[C@H](COCc2ccccc2)Oc2cc(N3CC[C@@H](O)C3)ccc2S1(=O)=O,"inconclusive: 28.2 µM [inhibitor, single point]",–
Cn1cnc2c1c(=O)[nH]c(=O)n2C,active: 30.6 µM,–
O=S(=O)(Nc1ccc(F)cc1)c1ccc(NC(=S)Nc2ccccc2)cc1,"inconclusive: 39.8 µM [inhibitor, partial curve, poor fit]",–
CC1CCCCc2nc3c(c(=O)n21)CCCC3 (configuration not stated),–,inactive: -0.14%
Cc1ccc(-c2nc(CS(=O)(=O)CC(=O)N3CC(C)CC(C)C3)c(C)o2)cc1 (configuration not stated),"inconclusive: 18.9 µM [inhibitor, partial curve, poor fit]",–
NC(=S)n1[nH]c(-c2ccc([N+](=O)[O-])cc2)c(N=Nc2ccc(Cl)cc2)c1=O,"inconclusive: 3.16 µM [inhibitor, full curve]",–
O=C(NNc1ccnc2cc(Cl)ccc12)C1CCCCC1,"inconclusive: 10.6 µM [inhibitor, partial curve, poor fit]",–
CCOc1ccc(NS(=O)(=O)c2ccc(C(=O)N3CCCC(C)C3)cc2)cc1 (configuration not stated),"inconclusive: 10 µM [inhibitor, partial curve, poor fit]",–
O=C(Nc1ccc(N2CCN(C(=O)c3ccccc3)CC2)cc1)c1ccc2c(c1)OCCO2,"inconclusive: 39.8 µM [inhibitor, partial curve, poor fit]",–
CC1(C(=O)Nc2ccc(Cl)cc2)Cc2c(-c3ccc(C(N)=O)cc3)ccnc2O1 (configuration not stated),"inconclusive: 39.8 µM [inhibitor, partial curve, poor fit]",–
CCOCCCn1c(SCC(=O)Nc2cccc(OC)c2)nc2ccccc2c1=O,"inconclusive: 35.5 µM [inhibitor, partial curve, poor fit]",–
Nc1ccc(N2CCN(c3cccc(Cl)c3)CC2)cc1,"inconclusive: 8.91 µM [inhibitor, partial curve, poor fit]",–
CC(C)Oc1ccc(C(=O)CCN2CCOCC2)cc1,"inconclusive: 42.3 µM [inhibitor, partial curve, poor fit]",–
NC(Cc1ccc(C(F)(F)F)cc1)c1csc(NC(=O)Nc2ccccc2Cl)n1 (configuration not stated),"inconclusive: 39.8 µM [inhibitor, single point]",–
Cc1cccc(CN2C(=O)CC(c3ccc(Cl)cc3)c3c(C)nn(-c4nc(C)cc(C)n4)c32)c1 (configuration not stated),–,inactive: -37.7%
COc1cc2c(cc1OC)C(C)N(C(=O)c1cc3c(s1)-c1ccccc1OC3)CC2 (configuration not stated),active: 25.1 µM,–
Cc1cc(=O)oc2cc(Oc3ccc([N+](=O)[O-])cc3[N+](=O)[O-])ccc12,–,inactive: 0.605%
CCCC(=O)O[C@]1(C(=O)CCl)[C@@H](C)C[C@H]2[C@@H]3CCC4=CC(=O)C=C[C@]4(C)[C@@]3(F)C(=O)C[C@@]21C,inactive,–
CC(=O)NCCC(=O)N[C@@H](CCC(N)=O)C(=O)N[C@@H](CO)C(=O)N[C@@H](CCC(N)=O)C(=O)N[C@@H](CCC(N)=O)C(=O)N[C@H](C(=O)N[C@@H](Cc1ccccc1)C(=O)N[C@]1(C)CCCCCCC=CCCC[C@@](C)(C(=O)N[C@@H](CCC(N)=O)C(=O)N[C@@H](CC(N)=O)C(N)=O)NC(=O)[C@H](CC(C)C)NC(=O)[C@H](CC(C)C)NC(=O)[C@@H](CCCNC(=N)N)NC(=O)[C@H](Cc2c[nH]c3ccccc23)NC(=O)[C@H](CC(C)C)NC(=O)[C@H](CC(N)=O)NC1=O)[C@H](C)O,"inconclusive: 34.3 µM [inhibitor, single point]",–
